# Laboratory results as given in the supplement of paper PMC7826260.
# This is one part of the list. Each Rep nickase domain was tested in vitro on the same pool of single strands at 3 µM enzyme and 37 °C for 1 h; the strands have 90 letters, of which the middle is given. Uncut reads are compared with the no-enzyme pool on a log2 scale; more negative means more cut, near 0 not cut, and no call is made. Reads are scaled to the total, so uncut sequences can rise above 0 when many others are cut.
# How the values were obtained:
# Assay in all cases: uncleaved DNA left, log2 of reads against the no-enzyme library (log2 ratio); higher = less cleavage (more negative = more Rep cleavage of the k-mer); sequences stand for … in CTCGTCCG…ACCGGAGA
# [1] = system: T1, Rep nickase domain of Muscovy duck circovirus
# T1 sequence (protein, residues 1-111, tag omitted): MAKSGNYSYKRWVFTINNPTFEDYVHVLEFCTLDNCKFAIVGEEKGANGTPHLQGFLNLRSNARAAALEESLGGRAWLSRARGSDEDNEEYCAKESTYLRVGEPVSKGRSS
# Experimental: (§1)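 A pool of 90-nt single-stranded DNAs with seven random bases just before the constant AC of the nick site (name = the seven bases) was cut by 3 µM recombinant His6-SUMO-tagged Rep nickase domain (300 nM DNA, 50 mM HEPES pH 8.0, 50 mM NaCl, 1 mM MnCl2, 1 h, 37 °C, three replicates). Uncut DNA was amplified and sequenced.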
# [2] = system: T2, Rep nickase domain of banana bunchy top virus
# T2 sequence (protein, residues 1-94, tag omitted): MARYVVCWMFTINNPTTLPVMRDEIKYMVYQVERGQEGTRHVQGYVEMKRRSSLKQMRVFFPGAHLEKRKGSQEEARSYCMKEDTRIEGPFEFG
# Experimental: as §1
# [3] = system: T3, Rep nickase domain of cabbage leaf curl virus
# T3 sequence (protein, residues 1-116, tag omitted): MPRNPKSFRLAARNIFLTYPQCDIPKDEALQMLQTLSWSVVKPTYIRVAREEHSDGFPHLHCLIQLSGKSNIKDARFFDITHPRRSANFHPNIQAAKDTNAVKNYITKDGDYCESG
# Experimental: as §1
# [4] = system: T4, Rep nickase domain of chickpea chlorotic dwarf virus
# T4 sequence (protein, residues 1-124, tag omitted): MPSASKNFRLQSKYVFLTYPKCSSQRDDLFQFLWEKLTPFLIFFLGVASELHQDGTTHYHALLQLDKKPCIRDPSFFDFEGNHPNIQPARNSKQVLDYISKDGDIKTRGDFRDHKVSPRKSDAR
# Experimental: as §1
# [5] = system: T5, Rep nickase domain of faba bean necrotic yellows virus
# T5 sequence (protein, residues 1-98, tag omitted): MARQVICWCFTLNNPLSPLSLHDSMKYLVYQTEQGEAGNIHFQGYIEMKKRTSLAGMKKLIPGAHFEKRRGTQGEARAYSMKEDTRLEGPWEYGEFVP
# Experimental: as §1
# [6] = system: T6, Rep nickase domain of maize striate mosaic virus
# T6 sequence (protein, residues 1-117, tag omitted): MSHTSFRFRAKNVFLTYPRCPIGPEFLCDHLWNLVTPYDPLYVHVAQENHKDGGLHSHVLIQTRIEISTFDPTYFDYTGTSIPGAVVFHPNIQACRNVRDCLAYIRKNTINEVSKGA
# Experimental: as §1
# [7] = system: T7, Rep nickase domain of porcine circovirus 2
# T7 sequence (protein, residues 2-116, tag omitted): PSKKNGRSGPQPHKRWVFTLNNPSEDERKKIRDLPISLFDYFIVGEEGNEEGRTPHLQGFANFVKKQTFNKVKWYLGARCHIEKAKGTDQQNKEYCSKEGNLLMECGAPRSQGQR
# Experimental: as §1
# [8] = system: T8, Rep nickase domain of tomato golden mosaic virus
# T8 sequence (protein, residues 1-124, tag omitted): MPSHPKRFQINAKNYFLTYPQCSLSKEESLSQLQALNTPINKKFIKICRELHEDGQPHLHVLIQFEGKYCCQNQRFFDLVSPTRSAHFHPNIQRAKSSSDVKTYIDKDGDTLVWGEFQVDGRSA
# Experimental: as §1
# [9] = system: T9, Rep nickase domain of tomato yellow leaf curl virus
# T9 sequence (protein, residues 1-136, tag omitted): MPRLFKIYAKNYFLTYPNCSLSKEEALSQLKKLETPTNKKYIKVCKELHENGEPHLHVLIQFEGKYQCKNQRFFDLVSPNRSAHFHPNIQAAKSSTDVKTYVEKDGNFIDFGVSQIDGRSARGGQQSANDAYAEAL
# Experimental: as §1
# [10] = system: T10, Rep nickase domain of wheat dwarf virus
# T10 sequence (protein, residues 1-137, tag omitted): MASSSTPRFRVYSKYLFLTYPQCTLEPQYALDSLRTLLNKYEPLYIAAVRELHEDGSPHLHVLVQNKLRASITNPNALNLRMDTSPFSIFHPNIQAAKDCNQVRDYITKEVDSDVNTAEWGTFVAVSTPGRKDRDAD
# Experimental: as §1
Sequence,uncleaved DNA left (log2) [1],uncleaved DNA left (log2) [2],uncleaved DNA left (log2) [3],uncleaved DNA left (log2) [4],uncleaved DNA left (log2) [5],uncleaved DNA left (log2) [6],uncleaved DNA left (log2) [7],uncleaved DNA left (log2) [8],uncleaved DNA left (log2) [9],uncleaved DNA left (log2) [10]
CGAAAAG,0.0617,0.0487,-0.678,-0.278,-0.0411,-1.03,0.0956,0.0639,0.127,-0.00564
GGGGATG,0.0168,0.0946,0.634,1.58,-0.0403,2.1,0.206,-0.053,-0.015,0.0055
GCGCGTC,-0.0326,-0.118,-0.144,-0.215,-0.051,-0.317,0.082,0.107,-0.0493,-0.074
GCCATAT,-0.0385,0.0711,0.238,0.247,-0.0827,-0.147,0.0061,-0.0693,0.0215,-0.0016
GATACGC,-0.043,0.0257,0.0767,0.263,0.0693,-0.0553,0.107,-0.106,-8.01e-05,0.0359
ACAAACG,-0.104,0.0768,-0.688,0.826,0.0101,-0.17,0.212,-0.0454,-0.0256,-0.023
GCCTGGG,-0.0716,0.00768,-0.336,-0.0288,0.0188,-0.558,0.218,-0.0407,0.0172,0.0469
ACTCTCC,-0.121,-0.103,-0.404,0.153,-0.069,1.13,0.0293,-0.0282,-0.181,-0.0646
GCACATC,0.0961,0.0102,0.0936,0.715,-0.115,-0.079,0.109,-0.0714,-0.0702,0.00998
TGCCCGT,0.0592,-0.0316,0.0692,-0.249,-0.0148,-0.583,-0.00535,-0.0613,0.0284,0.0388
ACAACAT,0.0555,0.0427,0.394,0.522,0.0688,0.405,0.2,0.0599,-0.0382,0.214
CCAGATA,-0.119,-0.0668,-0.176,-1.1,-0.0774,-0.466,-0.123,-0.0373,-0.204,-0.206
TGAATCC,-0.0733,-0.0533,0.177,0.247,0.00773,0.253,-0.054,-0.126,-0.0388,-0.0374
GAACAAC,0.0549,0.115,0.408,-0.192,-0.00536,1.21,0.144,-0.00251,0.0201,0.177
GGCAGCG,0.114,0.0315,-0.737,0.0657,0.078,-0.581,0.155,0.0416,0.0916,-0.0339
GATCGGT,-0.0349,-0.138,0.241,0.633,-0.0605,0.982,-0.105,-0.076,0.0404,-0.05
AGAAATA,-0.0442,-0.0215,0.0415,-0.883,-0.0344,-0.21,-0.131,0.0336,0.0723,0.0168
CTCGTCC,0.0578,-0.0379,0.312,0.742,-0.0316,1.12,-0.178,0.0537,0.0486,-0.031
CAAGTAA,0.00516,0.105,-0.184,-0.299,0.0295,-0.731,-0.036,0.0958,0.000981,0.11
TAATTTC,-1.69,-0.159,-4.12,-3.59,-0.0709,-3.58,-2.1,-3.92,-0.383,-4.06
CGCACGC,-0.0107,-0.025,-0.0777,0.0226,-0.0133,-0.225,-0.0982,-0.137,-0.108,-0.0761
TCGGAGT,0.0486,-0.133,0.0648,0.135,-0.0982,0.219,-0.055,0.00593,-0.135,-0.0184
GTAATTG,0.0727,-0.0553,-0.0851,-0.0509,-0.00541,-0.472,0.0631,0.0604,0.0491,-0.00623
CGCTTCT,-0.902,0.00431,-0.124,-1.76,0.0607,-0.589,-2.39,-0.0482,0.0555,-0.0244
GATGCCA,0.0325,0.0174,0.0293,0.458,-0.145,0.637,0.0149,0.0147,-0.101,-0.0141
CTCTCGA,-0.153,-0.0616,-0.468,-0.896,-0.000189,-1.15,0.00989,0.0166,0.0024,-0.113
AGTAGTC,0.0324,0.00567,-0.0308,0.11,-0.116,-0.459,0.0314,-0.0364,0.122,0.00223
AAGATCA,-0.00423,0.048,0.0693,-1.16,-0.0666,0.0941,-1.03,-0.0101,-0.0613,0.103
GTACCTT,0.0273,0.0404,0.267,0.583,0.027,1.72,-0.0394,0.142,0.161,0.131
CTCTAAC,0.0811,0.0473,-0.281,-1.73,-0.00712,-0.669,0.00964,0.016,-0.0131,-0.0192
